The supplement of paper PMC3724861
The other results are listed elsewhere or left out.

tested on: T1, Caupolican (Caup) homeodomain DNA-binding domain; assay: PBM E-score (8-mer, recovered from the published 9-mer minima) (E-score (dimensionless, -0.5 to 0.5)); Drosophila protein; higher = stronger relative binding preference, active = 0.31 or more
T1 sequence: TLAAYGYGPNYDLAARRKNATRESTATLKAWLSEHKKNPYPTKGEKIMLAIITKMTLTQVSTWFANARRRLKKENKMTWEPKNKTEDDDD
Procedure, shortened: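 An enrichment score, with higher meaning stronger, expresses relative binding preference for each short DNA word. The protein used was Caup's homeodomain DNA-binding domain (residues 214-303), produced by in vitro transcription and translation and tested at 100 nM on custom-designed protein binding microarrays. The 8-mer values were recovered from published 9-mer scores, each equal to the lower of its two constituent 8-mer scores.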

Sequence | PBM E-score
CAAAGCTA | inactive: 0.00033
AGCCGTGC | inactive: -0.133
ACTTAATA | inactive: 0.128
CCGCGAAA | inactive: -0.106
AGAATCGC | inactive: -0.0624
CACTATGC | inactive: 0.102
GAGATTTA | inactive: -0.0673
CGGCACAG | inactive: -0.169
AACACTAC | inactive: 0.222
ATGCGGAA | inactive: -0.0956
CCACACGG | inactive: -0.116
GTCGTACA | active: 0.352
AATCACGG | inactive: 0.0899
GATCTTCC | inactive: -0.1
AGTATCAC | inactive: 0.0862
TTCACCAA | inactive: -0.0154
GTCCAGGA | inactive: -0.00804
GCATTTCC | inactive: -0.0819
AGCGGCAT | inactive: -0.0552
AAATTTAT | inactive: 0.0898
CCGACTAG | inactive: -0.0872
CTTAATGA | inactive: -0.00974
GACGATAA | inactive: 0.0883
ATCGATGC | inactive: 0.0171

Sequence | PBM E-score
CCCGTCAC | inactive: -0.158
ATGAGGAG | inactive: -0.064
AGAAGCCA | inactive: -0.129
TCAGCGCA | inactive: -0.0633
ATGTGTGG | inactive: 0.0766
GGCGGTAC | inactive: -0.0735
GATGCGCA | inactive: -0.0837
AGGTTTGA | inactive: -0.052
AAGAGGAA | inactive: -0.0749
CTGGTAAG | inactive: -0.00689
ACATATTA | active: 0.33
ACTCGTTA | inactive: 0.0225
ATTAGTCC | inactive: 0.00589
AAGACACC | inactive: 0.0398
AAACTAAC | inactive: 0.194
TCTCTCAA | ≥ -0.00117
AGACAACA | active: 0.349
GGAGCGTA | inactive: -0.108
ACAAATAT | inactive: 0.273
AGACATCT | inactive: 0.172
AGCATCCT | inactive: -0.0345
AAGCGTTC | inactive: -0.0983
GATTCCCA | inactive: -0.0357
GCCTGGCA | inactive: -0.219

Sequence | PBM E-score
AATAAAAT | ≥ 0.206
ATCTCCAC | inactive: -0.106
AGCACCGG | inactive: -0.156
GGTGTAGA | inactive: 0.125
TCACTTCA | inactive: -0.0704
CGAAATAA | inactive: 0.0832
GCAACAAC | inactive: 0.205
ATGCAATA | inactive: 0.197
AGTCCCAC | inactive: -0.0729
CGAATTCC | inactive: -0.0156
GAGCATAC | inactive: 0.00685
ACAACCAA | inactive: 0.261
AAAGCTTA | inactive: 0.0133
AATAGTCC | inactive: 0.00729
GAACCCCC | inactive: -0.339
CCCTCAGA | inactive: -0.142
ATGCCTCC | inactive: -0.174
CGGACACA | inactive: 0.156
ACCGAAGT | inactive: 0.0279
GGGAGGAC | inactive: -0.145
CAATTAAA | inactive: 0.0678
CGACGTCA | inactive: -0.114
AGTAAACC | inactive: 0.0838
